# Reference: publication PMC4336329 (PLoS ONE, 2015)
# Among all 310,000 compounds or so, about 14,000 (4.5%) showed an effect of 50% or more. The effect is printed as a negative number. This is one part of the list.
# Molecular target: human ether-à-go-go-related gene (hERG) potassium channel (human, UniProt Q12809)
# Experiment: primary screen, population patch clamp on CHO cells stably expressing hERG
# 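Further: peak tail current of the secondary pulse compared with the same well before compound.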
# Sequence of human ether-à-go-go-related gene (hERG) potassium channel (Q12809 whole entry, looked up): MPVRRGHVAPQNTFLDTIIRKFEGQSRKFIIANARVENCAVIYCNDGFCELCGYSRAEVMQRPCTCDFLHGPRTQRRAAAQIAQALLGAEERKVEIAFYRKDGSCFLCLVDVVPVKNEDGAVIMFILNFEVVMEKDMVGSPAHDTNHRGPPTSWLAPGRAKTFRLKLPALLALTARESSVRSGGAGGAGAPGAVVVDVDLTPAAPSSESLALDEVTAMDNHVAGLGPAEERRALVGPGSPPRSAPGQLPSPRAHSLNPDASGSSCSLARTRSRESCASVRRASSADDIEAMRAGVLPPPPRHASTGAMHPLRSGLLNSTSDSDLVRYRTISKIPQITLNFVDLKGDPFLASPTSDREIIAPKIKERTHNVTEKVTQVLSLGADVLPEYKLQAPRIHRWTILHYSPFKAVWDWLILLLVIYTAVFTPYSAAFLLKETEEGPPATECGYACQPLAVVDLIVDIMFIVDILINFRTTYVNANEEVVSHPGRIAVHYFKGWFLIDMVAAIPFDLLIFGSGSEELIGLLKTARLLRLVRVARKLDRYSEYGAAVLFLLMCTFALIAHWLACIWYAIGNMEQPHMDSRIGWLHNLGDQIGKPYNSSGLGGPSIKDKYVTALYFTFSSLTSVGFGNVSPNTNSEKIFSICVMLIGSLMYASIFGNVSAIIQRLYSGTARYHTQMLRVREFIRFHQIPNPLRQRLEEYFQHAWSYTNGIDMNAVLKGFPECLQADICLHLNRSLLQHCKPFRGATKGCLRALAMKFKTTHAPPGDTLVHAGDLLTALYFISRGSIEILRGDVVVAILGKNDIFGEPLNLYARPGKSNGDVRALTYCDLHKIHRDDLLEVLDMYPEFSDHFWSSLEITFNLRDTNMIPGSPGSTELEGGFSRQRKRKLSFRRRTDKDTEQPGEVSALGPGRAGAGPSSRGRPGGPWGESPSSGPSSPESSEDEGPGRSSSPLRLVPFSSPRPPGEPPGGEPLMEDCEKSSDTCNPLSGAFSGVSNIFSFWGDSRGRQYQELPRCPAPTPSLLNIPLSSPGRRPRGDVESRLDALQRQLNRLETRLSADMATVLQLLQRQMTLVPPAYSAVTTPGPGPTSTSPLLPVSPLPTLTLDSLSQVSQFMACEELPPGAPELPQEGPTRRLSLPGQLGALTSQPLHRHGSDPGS
row,SMILES,"hERG current change (%, negative = inhibition) at 10uM [%]"
1,COCCn1nnnc1C(c1cccc(C#N)c1)N1CCCCCC1.Cl (stereo not shown),-56.6
2,CC(C)NC(=O)C(Cc1ccccc1)N1C(=O)c2ccccc2C1=O (stereo not shown),-4.63
3,Nc1cc(=O)[nH]c(SCC(=O)N2CCC(Cc3ccccc3)CC2)n1,-2.88
4,CCc1c(C)nc(N)n2c(SCC(=O)Nc3ccccc3OC)nnc12,11.8
5,CCn1cc(C(=O)N[C@@H](C)C(=O)NCCO)c(=O)c2cc3c(cc21)OCO3,8.64
6,CCn1c(SCc2ccccc2)nc2cc(OC)c(OC)cc2c1=O,21.4
7,CCCS(=O)(=O)N1CCCC(C(=O)N2CCC3(CC2)OCCO3)C1 (stereo not shown),15.7
8,CCOc1ccccc1C(C(=O)NC1CCCC1)N(C(=O)c1csnn1)C1CC1 (stereo not shown),13.6
9,CC(C)CNC(=O)c1ccccc1NC(=O)/C=C/c1cccc([N+](=O)[O-])c1,21.3
10,c1ccc(-c2ccc(SCc3cccnc3)nn2)nc1,8.9
11,Cc1c(NC(=S)Nc2ccccc2C(F)(F)F)cccc1[N+](=O)[O-],8.27
12,CCc1ccccc1NC(=O)COc1ccc2c(c1)OCO2,-4.6
13,Cc1ccc(OCC(=O)NCCc2nc3ccccc3[nH]2)c(C)c1,-5.52
14,CNC(=O)Cn1c(C)cc(=O)c2cccc(OC)c21,4.12
15,CCOC(=O)C1=C(C)Nc2ncnn2C1c1cc(Br)ccc1F (stereo not shown),14
16,CN(CC(=O)Nc1c(Cl)cccc1Cl)C(=O)CNC(=O)c1ccc2ccccc2c1,13.5
17,O=C(Nc1ccnc(-c2cccnc2)n1)c1cccc(Cl)c1Cl,-10.1
18,CCN(CC)C(=S)Nc1ccc(C(=O)OC)cc1,1.45
19,O=C(c1ccc(C(=O)N2CCCCCC2)cc1)N1CCCCCC1,-1.85
20,CC1CC(C)CN(CCC(=O)Nc2cccc(Cl)c2)C1 (stereo not shown),-49.1
21,Cc1c2cnn(CC(=O)N3CCC4(CC3)OCCO4)c(=O)c2c(C)n1Cc1ccccc1,-0.415
22,O=C(N/N=C/c1ccc(OC(F)F)cc1OC(F)F)c1ccc(Br)cc1,-6.46

row,SMILES,"hERG current change (%, negative = inhibition) at 10uM [%]"
1,Cc1ccc(S(=O)(=O)CCC(=O)OCC(=O)N2c3ccccc3NC(=O)C2(C)C)cc1,14
2,Cc1oc(-c2cccc3ccccc23)nc1CN1CCN(c2ncnc3ccccc23)CC1,-11.9
3,CC(Sc1nnnn1-c1ccc(O)cc1)C(=O)NC1CCCCC1C (stereo not shown),-9.23
4,CCC1=Nc2cc(C(=O)NCc3cccnc3)ccc2Sc2ccc(C)cc21,-15
5,O=C(CN(C(=O)C1CSC(=O)C1)c1ccccc1F)NCc1ccc2c(c1)OCO2 (stereo not shown),-12.4
6,Cc1cc(/C=C2\C(=O)NC(=O)N(Cc3ccccc3Cl)C2=O)c(C)n1-c1ccc(C(=O)O)cc1,46
7,CCOc1ccc(C(=O)Nc2cccc(-c3nc4ccccc4[nH]3)c2C)cc1[N+](=O)[O-],-39.1
8,CCn1c(=O)cc(OCC(=O)N2CCCCCC2)c2ccccc21,3.9
9,CCCCCC(=O)Nc1cc(S(=O)(=O)N2CCOCC2)ccc1N1CCCCC1,-30.6
10,c1ccc(CCN2CCN(c3ncnc4c3cnn4-c3ccccc3)CC2)cc1,-19.8
11,O=S(=O)(c1ccc2c(c1)nc1n2CCC1)N1CCOCC1,-13.9
12,COc1ccc(CNC(=O)CN2CCC(NC(=O)c3ccccc3C)CC2)cc1,-39.6
13,Cc1ccc(N/N=C/c2ccc(N3CCOCC3)cc2)cc1C,-5.47
14,Cc1nn(C)c(C)c1C1C(C#N)=C(N)Oc2n[nH]c(C)c21 (stereo not shown),-1.56
15,COCCNC(C)C(=O)C12CC3CC(CC(C3)C1)C2.Cl (stereo not shown),3.94
16,COc1ccc(-c2csc(N3N=C(C)C(C)C3=O)n2)cc1 (stereo not shown),-2.16
17,Cc1cc(OCC(=O)NC2CC2)c2c(C)cc(=O)oc2c1,-12.5
18,Cc1cccc(C(=O)Nc2nc3ccc(S(C)(=O)=O)cc3s2)c1,0.0902
19,[O-]c1c[n+](-c2ccccc2)no1,15.7
20,CCNC(=S)N=Nc1c(O)n(Cc2ccc(Cl)cc2)c2ccccc12,-3.23
21,C[n+]1cnc(-c2ccccc2)cc1-c1ccccc1.[I-],-9.29
22,CCNC(=S)N(CCCN(C)C)Cc1cc2cc3c(cc2[nH]c1=O)OCCO3,6.38

row,SMILES,"hERG current change (%, negative = inhibition) at 10uM [%]"
1,Cc1nnc(SCC(=O)N(C2CCCCC2)C2CCS(=O)(=O)C2)n1C (stereo not shown),1.05
2,CCOC(=O)C1CCN(C(=O)CCNC(=O)c2ccccc2OC)CC1,11.5
3,CN(CC1CCN(CCc2cccc(C(F)(F)F)c2)CC1)C(=O)c1ccc(F)cc1,-70.8
4,O=C(COC(=O)c1ccc(O)cc1O)NNC(=O)c1cccs1,6.45
5,CC1(C)OC(=O)N(NCc2ccccc2)C1(C)O (stereo not shown),19
6,O=C(Nc1cccc(Cl)c1)C1=Cc2cc(Cl)ccc2OC1,8.16
7,COc1ccc(C2=CC(=O)C[C@H](c3ccc(Cl)cc3)C2)cn1,-12.4
8,CCN(CC(=O)NCCc1ccc(Cl)cc1)Cc1nc2ccccc2c(=O)[nH]1,-53.3
9,CCOC(=O)c1cc(C)nc(S(C)(=O)=O)c1C#N,22.6
10,COc1ccccc1NC(=S)N(CCCN1CCOCC1)Cc1ccccn1,-14.3
11,Cc1cccn2c(=O)c3cc(C(=O)NCc4ccco4)c(=N)n(CCOCCO)c3nc12,-74.9
12,CC(OC(=O)c1cc(S(=O)(=O)N2CCOCC2)ccc1F)C(=O)NC1CCCCC1C (stereo not shown),0.582
13,O=[N+]([O-])c1cc(S(=O)(=O)NCCc2ccccn2)ccc1Cl,-21.8
14,Cc1ccc(NC(=O)CN2CCC(NC(=O)c3cccc(F)c3)CC2)cc1C,-41.3
15,Cc1cccc(OCCNC(=O)c2ccc(Cl)c(S(=O)(=O)NCc3cccnc3)c2)c1,-32.8
16,CC1CCN(CC(=O)Nc2ccccc2C#N)CC1,3.06
17,COc1ccc(-c2[nH]ncc2CNC(C)c2ccccc2Cl)cc1F (stereo not shown),-15.6
18,COc1cc2nc(CN3CCOCC3)n(CC(=O)NCC(F)(F)F)c(=O)c2cc1OC,5.18
19,CC(C)C(=O)N1CCN(c2ccccc2NC(=O)c2ccco2)CC1,-32.6
20,CC(=O)c1cccc(S(=O)(=O)N2CCC(C(=O)N(C)Cc3ccc(Cl)s3)CC2)c1,-25.3
21,COC(=O)c1sccc1OC(C)C(C)=O (stereo not shown),1.88
22,CN(Cc1ccccc1)S(=O)(=O)c1ccc(OCC(=O)NCc2ccncc2)cc1,-53.6

row,SMILES,"hERG current change (%, negative = inhibition) at 10uM [%]"
1,COc1ccc(S(=O)(=O)N2CCCC(C(=O)NCc3ccncc3)C2)cc1 (stereo not shown),-19.4
2,CC(=O)c1ccc(N2CCN(C(=O)C3(S(=O)(=O)c4ccc(Cl)cc4)CC3)CC2)cc1,-51.8
3,O=C(NCc1ccccc1)[C@H]1C[C@@H]1[C@H](NP(=O)(c1ccccc1)c1ccccc1)c1ccccc1,12.2
4,CCOc1cc(C(=O)N/N=C(\C)Cc2ccc(OC)cc2)cc(OCC)c1OCC,-3.15
5,O=C1/C(=C/c2ccccc2)CCC1C1CCCC1 (stereo not shown),0.186
6,Cc1nc(SC(C(=O)c2ccccc2)c2ccccc2)nc2ccccc12 (stereo not shown),-0.605
7,N#Cc1ccc(CSc2ccc(S(=O)(=O)N3CCCC3)cn2)cc1,-67.2
8,CC(C)N(CCNC(=O)c1nn(Cc2ccccc2)c(=O)c2ccccc12)C(C)C,-66.1
9,CN1CCc2nc3sc(C(=O)NC4CC4)c(N)c3cc2C1,9.22
10,O=C(Cc1c(O)c2ccccc2[nH]c1=O)NCc1ccccc1F,3.31
11,OCC1(CO)COC(c2ccccc2)=N1,-1.57
12,O=c1[nH]c(=S)n(CCC2=CCCCC2)c(O)c1C=NC1CCN(Cc2ccccc2)CC1,-55
13,CC(=O)Nc1nonc1-c1ccccc1,-3.47
14,COCc1ccc(-c2c(-c3cccc(OC)c3)sc3ccc(OC)cc23)cc1,15.3
15,CCc1ccc(/C(C)=N/Nc2cc(Cl)nc(C)n2)cc1,7.05
16,CCOC(=O)c1c(C)oc2ccc(O)c(CN3CCCCC3)c12,-37.4
17,CCOc1cccc(CN2CCCC(CNC(=O)c3cccc(OC)c3OC)C2)c1 (stereo not shown),-9.11
18,CCCCNC(=O)C1=C(N)C(C(=O)Nc2ccc(C)c(S(=O)(=O)N3CCCCC3)c2)SC1=Nc1ccc(C)cc1C (stereo not shown),-1.93
19,O=C(CCNC(=O)C1CCN(S(=O)(=O)c2ccccc2)CC1)Nc1cccc(C(F)(F)F)c1,-45.1
20,COc1cc(-c2noc(CCC(=O)NC3CCCCC3)n2)cc(OC)c1OC,13.9
21,CC1(O)CCN2C(=O)CCc3cccc1c32 (stereo not shown),-9.44
22,NC(=O)C1(N2CCCCC2)CCN(C2CC(=O)N(CCc3ccccc3)C2=O)CC1 (stereo not shown),-0.618
